From PubChem BioAssay AID1508642 (National Center for Advancing Translational Sciences (NCATS), 2021)
Hit rate of the full screen: of about 43,000 compounds, about 200 (0.47%) were called active. Not shown: some 12% with an inconclusive outcome. Calls follow the shape of the dose curve; as a rule, active = well fitted cell-killing curve with a large enough effect; inconclusive = small, poorly fitted or top-dose-only effect, or effect the other way; inactive = flat fitted curve, though single readings scatter. The list shows a part of the results.

Experiment: Cell viability qHTS assay in S16 Pmp22-F2sN cells; also: nearly all actives have a fitted effect of over 65% in size
Conditions: S16 Pmp22-F2sN Schwann cells (luciferase reporters placed in the Pmp22 gene) viability, CellTiter-Glo, 24 h; series mostly up to 57.5 µM; activity change, negative = cytotoxicity: at the top concentration
Method in brief: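 S16 Schwann cells carrying the Pmp22-F2sN reporter, seeded in 1536-well format, were exposed to library compounds for 24 h at 37C. Viability was read as CellTiter-Glo luminescence after 15 min at room temperature.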
% is scaled to controls: 0 for no effect and ±100 for the full control effect.

| Compound | activity change, negative = cytotoxicity |
| --- | --- |
| CCOC(=O)C1(C)C=C(Nc2ccc(OC)cc2)C(=O)N1c1ccccc1 (stereo not given) | inactive: 3.48% |
| COc1ccccc1NC(=O)c1oc2ccccc2c1NC(=O)c1c(F)cccc1F | inactive: -24.6% |
| CCOC(=O)c1ccc(NC(=O)c2ccc3c(c2)c(C)c(C)n3Cc2ccc(F)cc2)cc1 | inactive: -6.7% |
| COc1cc(OC)c(NC(=O)c2c(C)nn(-c3ccc(C)cc3)c2-n2cccc2)cc1Cl | inactive: 18.3% |
| COc1ccc(C(=O)NCCn2cc(SCC(=O)Nc3ccccc3)c3ccccc32)cc1OC | inactive: 10.4% |
| CC(C)(C)C(=O)Cn1c(=O)n(CCCCCC(=O)NCc2ccc3c(c2)OCO3)c(=O)c2sccc21 | inactive: 3.77% |
| COc1ccc(OC)c(NC(=O)c2ccc(-c3nc(CSc4ccccc4)c(C)o3)cc2)c1 | inactive: -1.65% |
| CSc1cccc(NS(=O)(=O)c2ccc3[nH]cc(C(=O)N4CCCC4)c(=O)c3c2)c1 | inactive: 14.8% |
| COc1ccc(CCNC(=O)c2ccc3c(c2)CCN3S(=O)(=O)c2ccc(Cl)cc2)cc1 | inactive: -8.98% |
| Cc1ccc(NC(=O)CSc2nccn2C2CCCC2)cc1 | inactive: -17.1% |
| Cc1ccc(NC(=O)Cn2cc(S(=O)(=O)c3ccc(F)cc3)c(=O)c3cc4c(cc32)OCO4)cc1 | inactive: 11.4% |
| COc1ccc(-n2c3c(c(=O)[nH]c2=O)C(NC(C)=O)(C(F)(F)F)C(=O)N3)cc1 (stereo not given) | inactive: 3.49% |
| COCCNC(=O)Cn1c(=O)n(Cc2ccc(C(=O)NCCc3ccc(OC)c(OC)c3)cc2)c(=O)c2ccccc21 | inactive: 3.38% |
| COc1cc(Cl)c(C)cc1NC(=O)CCCN1C(=O)C(c2ccccc2)Oc2cccnc21 (stereo not given) | inactive: 10.4% |
| COc1ccc(NC(=O)C2CCCN(S(=O)(=O)c3cn(C)cn3)C2)cc1Cl (stereo not given) | inactive: 13.1% |
| Cc1ccc(C(=O)c2sc(Nc3ccccc3F)c(S(=O)(=O)c3ccccc3)c2N)c(C)c1 | inactive: -13.4% |
| O=C(NCc1ccc2c(c1)OCO2)c1ccc2c(c1)N(Cc1cccc(Cl)c1)C(=O)c1ccccc1S2 | inactive: -0.0762% |
| Cc1cccc(N2CCN(C(=O)C3CCN(S(=O)(=O)c4c(C)noc4/C=C/c4ccccc4F)CC3)CC2)c1C | inactive: -1.46% |
| COc1ccc(C(=O)N(Cc2sccc2C)C2CCS(=O)(=O)C2)cc1Cl (stereo not given) | inactive: -3.07% |
| Cc1cc(C)c(Cn2c3ccccc3c3cnn(CC(=O)NCCc4ccccc4)c(=O)c32)c(C)c1 | inactive: -13.2% |
| COc1ccc(Cl)cc1NC(=O)Cn1nnc2sc3c(c2c1=O)CCC(C(C)(C)C)C3 (stereo not given) | inactive: 12% |
| CCc1cccc(C)c1NS(=O)(=O)c1c(C(=O)N2CCCCCC2)c(C)n(C)c1C | inactive: 3.53% |
| Cc1ccc(Cl)cc1N1CCN(C(=O)CN2C(=O)COc3ccc(S(=O)(=O)N4CCOCC4)cc32)CC1 | inactive: 19.7% |

| Compound | activity change, negative = cytotoxicity |
| --- | --- |
| O=C(NCc1ccc(F)cc1)c1ccc(CSc2nc3ccncc3n2Cc2ccc(F)cc2)cc1 | inactive: -17.9% |
| CCOC(=O)c1c(Nc2cccc(O)c2)nnc(-c2ccccc2)c1-c1ccccc1 | inactive: 27.8% |
| O=C(Nc1nnc(S(=O)(=O)N2CCCCCC2)s1)c1ccc(Br)cc1 | inactive: 6.29% |
| CC(=O)c1ccc(NC2=NS(=O)(=O)c3ccccc32)cc1 | inactive: 3.09% |
| CCc1ccc(NC(=O)CCS(=O)(=O)c2ccc3c(c2)CCN3C(C)=O)cc1 | inactive: -0.884% |
| Cc1cc(NC(=O)c2ccc3c(c2)N(Cc2cccc(Cl)c2)C(=O)c2ccccc2S3=O)ccc1Br (stereo not given) | inactive: 9.82% |
| Cc1ccc(S(=O)(=O)c2cn(Cc3ccccc3F)c3cc4c(cc3c2=O)OCO4)cc1 | inactive: -11.7% |
| CC1CCCN(Cc2c(O)ccc3c(=O)c(Oc4ccccc4Cl)c(C(F)(F)F)oc23)C1 (stereo not given) | inactive: 17.6% |
| COc1ccc(OC)c(CNC(=O)C2CCN(S(=O)(=O)c3cn(C)cn3)CC2)c1 | inactive: -0.721% |
| COc1cc(Cl)c(C)cc1NC(=O)c1cc(CN2CCOCC2)on1 | inactive: 2.48% |
| CCC1CN(S(=O)(=O)c2cc(-c3cc(C)no3)ccc2OC)c2cc(C)ccc2O1 (stereo not given) | inactive: -21.4% |
| COc1cccc2sc(N(Cc3cccnc3)C(=O)COc3ccccc3)nc12 | inactive: 1.81% |
| Cc1nn(-c2ccccc2)c(OC(=O)c2ccccc2F)c1S(=O)(=O)c1ccccc1 | inactive: 6.74% |
| CCOc1ccc(C(=O)Nc2nnc(SCc3cc(=O)c4cc(C)ccc4[nH]3)s2)cc1 | inactive: -8.66% |
| CC1CCN(S(=O)(=O)c2ccc3c(c2)N(CC(=O)NCCCN2CCCCC2C)C(=O)CS3)CC1 (stereo not given) | inactive: 12.7% |
| N#Cc1ccccc1NC(=O)c1cc2c(=O)n3ccccc3nc2s1 | inactive: -29.7% |
| COc1ccc(CCNC(=O)C2=C(C)C(=O)OC23CCCCC3)c(OC)c1OC | inactive: 3.93% |
| CCN(CC)S(=O)(=O)c1ccc2c(c1)nc(CN(C)C(=O)c1cccc(Cl)c1)n2C | inactive: -14.5% |
| Cc1ccc(C)c(NC(=O)CSc2nc(=O)n(CCN(C)C)c3c2CCC3)c1 | inactive: 20.8% |
| COc1cc(CN(C(=O)c2ccccc2[N+](=O)[O-])c2ccccn2)cc(OC)c1OC | inactive: -7.03% |
| Cc1sc2c(c1C)c(=O)n(CCc1ccccc1)c(=O)n2Cc1ccccc1Cl | inactive: 14% |
| CCc1ccccc1NC(=O)Cn1c(=O)c2cccn2c2ccc(F)cc21 | inactive: 5.75% |
